Sequences and labels used below:
T1: UNK ZnF1-3 (human, UniProt Q9C0B0 31-174)
T1 sequence: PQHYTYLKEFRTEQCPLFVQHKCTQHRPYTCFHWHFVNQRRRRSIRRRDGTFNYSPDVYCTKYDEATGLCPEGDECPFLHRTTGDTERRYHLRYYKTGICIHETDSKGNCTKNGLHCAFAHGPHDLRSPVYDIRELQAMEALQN

B1: chr7:135612270:135612271:-_ENSG00000105887_ENST00000393085|hu_mus|hu_hu_hu_mus_False|18_38 (ssRNA)
RNA: GGGAGUUCUACAGUCCGACGAUCGUUUUUUUCUGAGAUGUUAAAUAGUACUUCAGUGGAAAACAAAACUUAACCUUUUAUUAAUGCGUGUUGUACCAGAAAGCAAAAUUUUAGCUUGCUUCCUUUAAAAAUAUUAACAUUAAGCAACAGAGGAUUGAGCAUCA
B2: chr7:23164667:23164668:+_ENSG00000122550_ENST00000322275|hu_hu|FALSE|FALSE (ssRNA)
RNA: GGGAGUUCUACAGUCCGACGAUCCACAGGUUCAAUCUGAUAUUGGUUUGCUGCAUCCAGCAAAGACUGAACAUUGUUGCUAUUCACGGAAAUUCUAGCAGUAUAAGCAAAUUCCACCAGUUGUUCAAUAAUAUCAGGUUCAGCCAACAGAGGAUUGAGCAUCA
B3: chrX:20248820:20248821:+_ENSMUSG00000001924_ENSMUST00000001989|mus_mus|mus_mus_mus_hu_True|68_88 (ssRNA)
RNA: GGGAGUUCUACAGUCCGACGAUCGGCGAAGUCCGUCACCACAAAGUCAGGCUCUACCAGUGAGGCCGGCAAGGAUUUAAAGCUAAUCUUCUUAGGUACUUUGACCUGACUGACGAUGCCUCCACGGAUGUAGUCGGAGAAGUUCAACAGAGGAUUGAGCAUCA
B4: chr11:77336104:77336105:-_ENSG00000074201_ENST00000525064|hu_mus|hu_hu_hu_mus_False|88_88 (ssRNA)
RNA: GGGAGUUCUACAGUCCGACGAUCCUCACACAUUGCUGUGAACAUCGCCUCCAACGCUGACUUAUCACUGGGCACAAAUCGAAAUUCAGAAAUGGGUUCAACAUCAUCAUUGUCUUCCUCAUCUUCAUCAGAGAGAGGUUCUUUCAACAGAGGAUUGAGCAUCA
B5: chr9:121621712:121621713:+_ENSMUSG00000032526_ENSMUST00000035113|mus_mus|motif|central (ssRNA)
RNA: GGGAGUUCUACAGUCCGACGAUCCUUUGUGAGACUGCUUGUGUUGGCGUCUGCGAUGGUAGCUAAAUAAAUGAGAUUUCGGUGUAACACAUGCUGAUACUGGACGCACUCGUUCGCUCGGCCCUUAUUCUGAUACUCCACGAUCAACAGAGGAUUGAGCAUCA
B6: 59334095_59334215_266_5pUTR_ENSMUSG00000025234_ENSMUST00000171975|mouse|control|control (ssRNA)
RNA: GGGAGUUCUACAGUCCGACGAUCUCCUCGCUGCACUCCUCGUCCUCGUCGAACUCGUAGUUGUAGCCCUCGUCCGAGUCCAUGGCGCGACGCGCGCGGGCCCGGCAGACGCUGGCCGCGGCGCGGAGAGGGCGGGGACGCCGACAACAGAGGAUUGAGCAUCA
B7: chr22:36164377:36164378:-_ENSG00000100320_ENST00000405409|hu_mus|FALSE|FALSE (ssRNA)
RNA: GGGAGUUCUACAGUCCGACGAUCACGGCCCUCUACCACGGUGCCGUGCAAUUUCUCCCUGGCCCUGUCUGCAUCAGCACUAUUCUCGAAAGUUACGAACCCGAAUCCCUUGGAGCCGCGCUCAUUAAAGAUUAUUUCCACAUCCAACAGAGGAUUGAGCAUCA
B8: chr7:23387248:23387249:-_ENSG00000136231_ENST00000258729|hu_mus|FALSE|FALSE (ssRNA)
RNA: GGGAGUUCUACAGUCCGACGAUCGAUCUUCAAGGGAAUCUCCUCUGUGAAUUUUAUAUCUUGAGCUUCCUUAUGCAUAAUCUCCAGAAUAGACUUACAAGCUGCAGAGGUGCCUUCAGGGGUAGAGAGGAUAGUAAUGGACUUCAACAGAGGAUUGAGCAUCA
B9: chr3:33945423:33945424:+_ENSMUSG00000027680_ENSMUST00000167354|mus_hu|motif|central (ssRNA)
RNA: GGGAGUUCUACAGUCCGACGAUCGGUAUUUUUUUUGACAGUUUUAUUUUGAUUGACAGGCCGAAGUCGUUCAAAUGUGACGGUUUCAUUGUAAGUAGCGUCACAAGCAGCAUAUUCAAUGACAUAAAAUUCUCCUUUCAUCAUCAACAGAGGAUUGAGCAUCA
B10: chr4:17488853:17488854:-_ENSG00000151552_ENST00000428702|hu_hu|motif|central (ssRNA)
RNA: GGGAGUUCUACAGUCCGACGAUCUAGGCUUCCUGAGCUCGGUCGGUUUUUCCCUGUGAUCCAGUCAUGGAAAGUUUCAACGGGGAAUUCUAAGGGUGUCCAGGAGCUGAAGUCAGCCUCAGGCAUUGAUUUCCUGUUCAUCGGCAACAGAGGAUUGAGCAUCA
B11: chr5:128440902:128440903:+_ENSG00000066583_ENST00000173527|hu_mus|hu_hu_hu_mus_True|1_38 (ssRNA)
RNA: GGGAGUUCUACAGUCCGACGAUCUUGAACGGUGCUGCCAAGUCCUUUGGGGUAUUGUUCCGUUAUGAUAACUGGAAUCCCUAAGAUCCGAGCUCCUUGCAACAAUCUCUGUCCCACACUAAUGAUGUCCCCAAAGUACUUGAUCAACAGAGGAUUGAGCAUCA
B12: chr16:10423590:10423591:+_ENSMUSG00000022503_ENSMUST00000023146|mus_mus|motif|central (ssRNA)
RNA: GGGAGUUCUACAGUCCGACGAUCUGGGAGUCCUGUGACUCAGAGAGUUCCUAGUCCCUUGGAUUCCAGGAAGCAGGCCCGGAGGGAUAGGUUCAAGGAGACAUUUUUAUUUUCUGAUGAAUGGCACCUGGAUGCAGAGCGCCCCAACAGAGGAUUGAGCAUCA
B13: 76226851_76226971_1228_CDS_ENSG00000117054_ENST00000370834|human|control|control (ssRNA)
RNA: GGGAGUUCUACAGUCCGACGAUCAGUAGCUAACUGAUUUGCAAUAUCUCCAGCAAAUGCCUUUGCAAUAGAAGCAUAAUAGGUAUUUCGACGACCAGAAUCAACCUCCCAAGCUGCUCUCUGGUAACUCAUUCUAGCUAGUUCCAACAGAGGAUUGAGCAUCA
B14: chr5:37341331:37341332:-_ENSG00000113569_ENST00000381843|hu_mus|FALSE|FALSE (ssRNA)
RNA: GGGAGUUCUACAGUCCGACGAUCUGUCAGUGUAUUCGGCCGAGCUAAUGGCUGUCUAAACGGACAAGUGCUGAAAUACAGCCUUACACCUGCGUGAGUGACAGCCAGUAACUGACAGUCCAGGGAUUCAGAACUCUCAAUCACCAACAGAGGAUUGAGCAUCA
B15: 8834627_8836091_1177_3pUTR_ENSMUSG00000021147_ENSMUST00000021572|mouse|control|control (ssRNA)
RNA: GGGAGUUCUACAGUCCGACGAUCUCACCACGAGCCGCUGGGUGGGGUGAGUGCAACAAUGUGUUAACUCCUGGUCAUGCCCUGUCAGGGAAUGAACGAGUUCAGAUGUCUCCACAUCAUACAGGUUGGCAGUUCUGUCCCAUGCAACAGAGGAUUGAGCAUCA
B16: chr5:22970553:22970554:+_ENSMUSG00000029004_ENSMUST00000094962|mus_mus|motif|central (ssRNA)
RNA: GGGAGUUCUACAGUCCGACGAUCAGCACUGGAAGUUUCAUCAAAAUUAGGAGUGGUAAAUAUGCCUACUUCGUUUUUGCGGAUGAGACCUGAUGGAGGAGGGGAUGCUGGAGGUGUUGGAGGAGGACGAGCACCAUAAUUAUGCAACAGAGGAUUGAGCAUCA
B17: chr19:8913615:8913616:-_ENSMUSG00000071658_ENSMUST00000096259|mus_hu|mus_mus_mus_hu_False|18_78 (ssRNA)
RNA: GGGAGUUCUACAGUCCGACGAUCAGGGUACCAAAACCUUCUGCCUGAAAUGGGUGCCCCACCCUGCAGGGAGUUGCAGCUGAAAGUAUCUGAUGCAGAAGCAGUGACUAUACGAAAGGUCACUAGAGGGGAGGGCCAGGCCAGCAACAGAGGAUUGAGCAUCA
B18: chr19:8913615:8913616:-_ENSMUSG00000071658_ENSMUST00000096259|mus_hu|mus_mus_mus_hu_False|18_48 (ssRNA)
RNA: B17 RNA with U64A, C66U, U90C, A92U, U93A
B19: chr11:68315578:68315579:+_ENSG00000110075_ENST00000393800|perfect_dup|FALSE|FALSE (ssRNA)
RNA: GGGAGUUCUACAGUCCGACGAUCUGGAGGUUCGAUACACGUCAGGAGCCUGAGCAACAAAUCCAUGAUAGCAGAAGUUCCUAUGUGCUUUAUAAUAAGGUCUACAAAAUCAUGCUUCUUCUUUAAGAAAUCCACAAUCUGUUCCAACAGAGGAUUGAGCAUCA
B20: chr2:216981417:216981418:+_ENSG00000079246_ENST00000392132|hu_hu|hu_hu_hu_mus_True|1_18 (ssRNA)
RNA: GGGAGUUCUACAGUCCGACGAUCCUGAUACUGGUCCUUGCCAGCAAGGGCAUUAUCAGUGCCAUCUGUGCCAUAGAGGACUAACGCAAUCUCAUCUUUGCUCUCCGAAAAUACCUGUCGCUGUACAAACAUAGUCAUCACCUUCAACAGAGGAUUGAGCAUCA
B21: 26743308_26743658_2015_CDS_ENSMUSG00000024921_ENSMUST00000025862|mouse|control|control (ssRNA)
RNA: GGGAGUUCUACAGUCCGACGAUCCUCCUCGUAGUCCGAUUCACUCUCUUCACUGUCAGAUCUGGGUGCAACUUCGUAACCAGGAUUCAUCUCCAGCCAGGCAUCCAGCUGACUUGCUUUGGGUGCUUCUGGUCCAAAGAGGACCAACAGAGGAUUGAGCAUCA
B22: chr14:76904430:76904431:+_ENSMUSG00000022010_ENSMUST00000022587|mus_mus|mus_mus_mus_hu_True|48_48 (ssRNA)
RNA: GGGAGUUCUACAGUCCGACGAUCUGCAGCCAAAAACACCCUCGUGGAAAAAAAGAGGGAACACCAGCAGCCUUGUAUAAGCUAGAUAAAACCGCCUGGCUUUCCGCAGCCCAGGGAGAAACAGAAAACGGCAGCCCUAAUUUACAACAGAGGAUUGAGCAUCA

Numbering of substitutions follows the chain as printed. Some of the results follow.

The target in the assay is T1, UNK ZnF1-3. The experiment in a line: nsRBNS (natural sequence RNA bind-n-seq); RBNS binding buffer (assumed for nsRBNS): 25 mM Tris pH 7.5, 150 mM KCl, 3 mM MgCl2, 0.01% Triton X-100, 500 ug/ml BSA, 20 U/ml SUPERase-In, 4 C; UNK is unkempt and MSI1 is Musashi-1; names of the RNAs are library labels; protein concentration not given here; high values mean tight binding.
As for B1, the binding signal amounted to 0.634 enrichment R.

B2 yielded a binding signal of 1.52 enrichment R.

On to B3, for which the binding signal is 0.897 enrichment R.

For the molecule B4, the binding signal came to 1.24 enrichment R.

Take B5: the binding signal was found to be 0.693 enrichment R.

As for B6, the binding signal amounted to 0.207 enrichment R.

In turn, B7 returned a binding signal of 1.19 enrichment R.

B8 yielded a binding signal of 1.34 enrichment R.

Take B9: the binding signal was 0.595 enrichment R.

B10 returned a binding signal of 1.08 enrichment R.

As to B11, the binding signal was found to be 0.59 enrichment R.

For the molecule B12, the binding signal turned out to be 1.57 enrichment R.

B13 showed a binding signal of 0.967 enrichment R.

B14 had a binding signal of 0.729 enrichment R.

B15 returned a binding signal of 0.851 enrichment R.

Consider B16, for which the binding signal turned out to be 2.93 enrichment R.

In turn, B17 showed a binding signal of 1.33 enrichment R.

B18 showed a binding signal of 1.89 enrichment R.

B19 registered a binding signal of 1.38 enrichment R.

Molecule B20 came in with a binding signal of 0.82 enrichment R.

Regarding B21, the binding signal stood at 0.781 enrichment R.

The molecule B22 registered a binding signal of 2.18 enrichment R.

The values above are taken from article PMC12136788.
